Measured values published in patent US8263074B2, “Fibroblast growth factor receptor-1 inhibitors and methods of treatment thereof” (ImClone LLC, priority 2003, dated 2012).

Assays:
[1] = target: T1, FGFR-1c (Homo sapiens, UniProt P11362); assay: BiaCore binding kinetics; settings: BiaCore analyses; read-out: KDa to FGFR-1(IIIc)
T1 construct: purchased R&D Systems

[2] = target: T2, FGFR-1(IIIb) (Homo sapiens, UniProt P11362); assay: ELISA blocking assay (receptor binding to immobilized FGF)
T2 construct: purchased R&D Systems
T2 sequence (P11362 22-822 isoform P11362-19 limits assumed): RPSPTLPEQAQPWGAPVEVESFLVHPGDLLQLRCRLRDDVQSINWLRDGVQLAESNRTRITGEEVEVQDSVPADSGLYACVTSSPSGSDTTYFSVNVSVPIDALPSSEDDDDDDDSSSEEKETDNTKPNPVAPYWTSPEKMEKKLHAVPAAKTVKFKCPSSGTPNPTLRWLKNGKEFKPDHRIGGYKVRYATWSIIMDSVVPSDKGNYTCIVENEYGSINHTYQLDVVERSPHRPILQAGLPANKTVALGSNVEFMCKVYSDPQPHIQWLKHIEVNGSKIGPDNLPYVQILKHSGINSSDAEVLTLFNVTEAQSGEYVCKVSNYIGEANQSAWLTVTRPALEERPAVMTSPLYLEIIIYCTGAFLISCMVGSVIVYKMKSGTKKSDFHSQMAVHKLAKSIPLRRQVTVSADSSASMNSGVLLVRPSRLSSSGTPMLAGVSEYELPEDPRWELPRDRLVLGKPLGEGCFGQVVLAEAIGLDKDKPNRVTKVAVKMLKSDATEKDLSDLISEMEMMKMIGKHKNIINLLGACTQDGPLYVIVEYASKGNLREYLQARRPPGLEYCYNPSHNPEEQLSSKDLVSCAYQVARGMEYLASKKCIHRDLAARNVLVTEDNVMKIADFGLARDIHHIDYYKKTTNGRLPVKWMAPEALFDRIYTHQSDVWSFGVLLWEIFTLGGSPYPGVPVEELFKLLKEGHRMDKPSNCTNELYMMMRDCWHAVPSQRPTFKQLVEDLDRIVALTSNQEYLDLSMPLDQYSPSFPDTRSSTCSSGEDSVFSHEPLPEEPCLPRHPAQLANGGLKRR
Protocol: Recombinant FGFs (R&D systems, Minneapolis, Minn.) were coated on Immulon® 2B microtiter plates (ThermoLab Systems, Franklin, Mass.) at concentrations of 0.5-2 μg/ml for 2 hrs. The plates were then washed with 0.2% Tween20/PBS, and blocked with 5% milk/PBS for 2 hrs before use. Phage or antibody was serially diluted with 5 μg/ml heparin (Sigma, St Louis, Mo.), 5% milk, PBS. Recombinant FGFR-1 (R&D Systems) was then added to a final concentration of 1 μg/ml. The mixture was incubated at room temperature for 1 hr before transfer to the FGF-2 coated plates, and incubated at room temperature for an additional 2 hrs. Plates were then washed 3 times with 0.2% Tween20/PBS. The bound receptors were detected using an anti-human Fc monoclonal antibody coupled with HRP (Pierce Biotechnology Inc., Rockford, Ill.) solution prepared according to supplier's instructions. Data were presented as % inhibition of ligand-receptor binding of the controls.
This experiment was thoroughly described in Examples 6 and 14, except that FGFR-1(IIIb) recombinant protein was used instead of FGFR-1(IIIc) in all occasions. FR1-4H inhibited the binding of FGFR-(IIIb) to FGF Ligand (FIG. 29). Percent binding was determined using the ELISA blocking assay described in Examples 6 and 14.

T1 sequence (P11362 22-822): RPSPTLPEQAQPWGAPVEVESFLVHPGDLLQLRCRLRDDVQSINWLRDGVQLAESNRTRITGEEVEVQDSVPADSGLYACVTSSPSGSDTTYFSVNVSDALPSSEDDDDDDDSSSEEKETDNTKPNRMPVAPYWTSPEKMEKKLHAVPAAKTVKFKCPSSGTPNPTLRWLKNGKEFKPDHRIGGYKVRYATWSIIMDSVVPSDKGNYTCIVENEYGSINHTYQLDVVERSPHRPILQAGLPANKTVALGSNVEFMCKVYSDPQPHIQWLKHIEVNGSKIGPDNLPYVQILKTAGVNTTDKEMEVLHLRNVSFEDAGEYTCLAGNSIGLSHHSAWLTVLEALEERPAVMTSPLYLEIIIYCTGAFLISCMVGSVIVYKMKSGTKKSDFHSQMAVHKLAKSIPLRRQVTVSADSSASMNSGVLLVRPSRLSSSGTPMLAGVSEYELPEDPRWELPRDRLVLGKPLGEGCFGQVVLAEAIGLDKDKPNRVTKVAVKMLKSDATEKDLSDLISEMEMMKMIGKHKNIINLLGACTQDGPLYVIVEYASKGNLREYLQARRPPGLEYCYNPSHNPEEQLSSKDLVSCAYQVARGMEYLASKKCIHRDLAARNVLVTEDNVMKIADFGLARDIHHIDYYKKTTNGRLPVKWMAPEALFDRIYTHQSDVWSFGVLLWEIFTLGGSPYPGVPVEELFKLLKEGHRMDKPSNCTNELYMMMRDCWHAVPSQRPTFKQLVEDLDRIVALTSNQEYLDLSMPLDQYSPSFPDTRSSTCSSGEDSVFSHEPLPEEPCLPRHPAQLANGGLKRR

B1: FR1-4H: neutralizing antibody specific to only the b-splicing form of FGFR-1; VH/VL SEQ ID NOS:23, 24 (antibody, listed as Homo sapiens, V domains shown)
VH: QVQLVEFGPGLVKPSETLSLTCTVSGGSISSYYWSWIRQPPGKGLEWIGYIYYSGSTNYNPSLKSRVAISVDTSKNQFSLKLSSVTAADTAVYYCAREYYYDSSGYYFYAFDIWGQGTTVTVSS
VL: LPVLTQPPSASGTPGQRVSISCSGSSSNIGSNYVYWYQQLPGTAPKLLIFRNNQRPSGVPDRFSGSKSGTSASLAISGLRSEDEADYYCAAWDDSLSGWVFGGGTKLTVLG
Kd [1]: > 10 µM
inhibition of binding of FGFR-(IIIb) to FGF ligand [2]: inhibited
antibody concentration at which percent binding was statistically reduced over control ([2]; FGFR-1(IIIb)): above 1 nM
